Out of some 350,000 compounds screened, about 260 (0.074%) were called active. The shares of active, inactive and inconclusive entries below differ from those in the screen. Calls come from the whole dose curve; as a rule, active = well fitted inhibition curve with a large enough effect; inconclusive = small, poorly fitted or top-dose-only effect; inactive = no such curve, though single readings can be large or run the other way. Where the call is inconclusive, the potency comes from a doubtful curve fit.
The compounds below were run against Ferritin light chain (Equus caballus) (UniProt P02791) (assay: qHTS Assay for Identification of Novel General Anesthetics). Details: apoferritin/1-aminoanthracene competitive binding, fluorescence; activity change, negative = displacement: at 77.5 µM (top of the series).
Outline: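 Steps: apoferritin (10 uM) was premixed with half-saturated 1-AMA in PBS, compounds were pin-transferred, plates stood 10 min at room temperature, fluorescence was read at 380/535 nm, and curves were fitted with a Hill equation.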
% is set by controls: 0 for no effect and ±100 for the full control effect; potency is the fitted concentration of half-maximal effect; tags give direction and shape of the fitted curve.
Note: nearly all actives have a fitted effect of over 20% in size.

UniProt P02791, sequence (P02791 whole entry, looked up): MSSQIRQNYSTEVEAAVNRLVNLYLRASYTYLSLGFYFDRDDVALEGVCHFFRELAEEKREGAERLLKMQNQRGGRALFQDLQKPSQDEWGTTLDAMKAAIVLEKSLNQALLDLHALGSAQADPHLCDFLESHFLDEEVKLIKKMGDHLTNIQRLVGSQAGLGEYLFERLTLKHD

| Structure (SMILES) | activity change, negative = displacement | Potency |
| --- | --- | --- |
| Cc1nn(CC(=O)N2c3ccccc3NC(=O)C2(C)C)c(C)c1[N+](=O)[O-] | inactive: -7.5% |  |
| COC(=O)CC(=O)CSc1nc2cc(C(=O)NC(C)C)ccc2c(=O)n1CCc1ccccc1 |  | inconclusive: 20 µM [inhibitor, partial curve] |
| COc1cc(/C=N/NC(=O)C(C)n2nnc3ccccc32)ccc1O (stereo not given) |  | inconclusive: 56.2 µM [inhibitor, single point] |
| COc1ccc(Cc2nnc(NC(=O)c3ccccc3F)s2)cc1 |  | inconclusive: 50.1 µM [inhibitor, single point] |
| CC1(C)Cc2nc(-c3ccccc3)nc(SCC(=O)N3CCCC3)c2CO1 |  | inconclusive: 6.31 µM [inhibitor, single point] |
| O=C(CSC1=NCCS1)N1CCCCCC1 |  | inconclusive: 22.4 µM [inhibitor, partial curve] |
| Cc1ccc(-c2oc3ncnc(N)c3c2-c2ccc(C)cc2)cc1 | inactive: 1.21% |  |
| Cn1c(C(=O)OC(C(=O)NC2CCCC2)c2ccncc2)cc2sccc21 (stereo not given) |  | inconclusive: 25.1 µM [inhibitor, partial curve] |
| COC(=O)CC1Sc2ccccc2NC1=O (stereo not given) |  | inconclusive: 56.2 µM [inhibitor, single point] |
| CCC(C)NS(=O)(=O)c1ccc(OCC(=O)Nc2ccc3c(c2)OCCO3)cc1 (stereo not given) |  | inconclusive: 39.8 µM [inhibitor, single point] |
| CCN(C(=O)CN1C(=O)S/C(=C\c2cccc(Cl)c2)C1=O)C1CCS(=O)(=O)C1 (stereo not given) | inactive: -20.2% |  |
| CCNc1ccc(Br)cc(C(=O)/C=C/c2ccc(Cl)cc2Cl)c1=O |  | inconclusive: 50.1 µM [inhibitor, single point] |
| O=C(CCC(=O)Nc1ccccc1)N/N=C/c1ccco1 |  | inconclusive: 31.6 µM [inhibitor, partial curve] |
| Cc1csc(Nc2ccccc2)[n+]1-c1ccccc1 |  | inconclusive: 31.6 µM [inhibitor, single point] |
| Fc1ccc(Nc2nc(SCc3cccc(F)c3)nc3ccccc23)cc1 | inactive: 35.1% |  |
| COc1ccc(NC(=O)c2nc(C)n(-c3ccc([N+](=O)[O-])cc3)n2)cc1 |  | inconclusive: 31.6 µM [inhibitor, partial curve] |
| O=[N+]([O-])O[C@H]1CO[C@H]2[C@@H]1OC[C@H]2O | inactive: -0.887% |  |
| CCOC(=O)c1ccc(N2C(=O)c3[nH]nc(-c4ccc(C)cc4)c3C2c2ccc(O)cc2)cc1 (stereo not given) | inactive: -11.3% |  |
| COc1ccc(C2c3c(n(C)c4ccccc34)C(=O)N2CC(=O)Nc2c(C)cc(C)cc2C)cc1 (stereo not given) |  | inconclusive: 20 µM [inhibitor, partial curve] |
| COc1cccc(C(=O)NCc2ccc3c(c2)OCO3)c1 |  | inconclusive: 35.5 µM [inhibitor, partial curve] |
| O=C1c2cccc3cccc(c23)C(=O)N1c1ccccc1Cl |  | inconclusive: 14.1 µM [inhibitor, partial curve] |
| CCC1CCC(C(=O)NNC(=O)c2cc(-c3ccco3)[nH]n2)CC1 (stereo not given) |  | inconclusive: 17.8 µM [inhibitor, partial curve] |
| Cc1ccc(NC(=O)C2COc3ccccc3O2)nc1 (stereo not given) |  | inconclusive: 35.5 µM [inhibitor, partial curve] |
| O=C(Nc1ccccc1)ON=C1c2ccccc2-c2ccccc21 |  | inconclusive: 31.6 µM [inhibitor, partial curve] |

| Structure (SMILES) | activity change, negative = displacement | Potency |
| --- | --- | --- |
| Cn1c(NNC(=O)C(c2ccccc2)c2ccccc2)cc(=O)n(C)c1=O | inactive: -10.6% |  |
| Cc1ccc2c(c1)C(=O)OC(C(=O)Nc1ccc(C(=O)O)cc1)C2 (stereo not given) | inactive: 57.1% |  |
| COc1ccc(C(=O)CN2CCN(S(=O)(=O)c3ccc(F)cc3)CC2)cc1 |  | inconclusive: 25.1 µM [inhibitor, single point] |
| O=[N+]([O-])c1ccc(N2CCc3ccccc3C2)cc1 |  | inconclusive: 5.62 µM [inhibitor, full curve, poor fit] |
| Cc1ccc(Sc2ccc(N3CCCC(C(=O)Nc4ccc(Br)cc4)C3)nn2)cc1 (stereo not given) | inactive: -16% |  |
| COc1cccc(OC)c1C(=O)N1CCN(Cc2ccccc2C(F)(F)F)CC1 |  | inconclusive: 22.4 µM [inhibitor, partial curve] |
| COc1cccc(C(=O)Nc2ccc(Oc3cccc(C(F)(F)F)c3)nc2)c1 |  | inconclusive: 11.2 µM [inhibitor, partial curve] |
| CC(C)CNC(=O)[C@H](Cc1ccccc1)NC(=O)c1ccco1 |  | inconclusive: 50.1 µM [inhibitor, single point] |
| Cc1ccc(C)c(-n2nnnc2SCC(=O)NCCC2=CCCCC2)c1 | inactive: -18.4% |  |
| Cc1ccc(C)c(N2CCN(c3nc4ccccc4c(=O)n3-c3ccc(Cl)cc3)CC2)c1 | inactive: -11.9% |  |
| Cc1cc(C(=O)CSc2n[nH]c(N)n2)c(C)n1C1CC1 |  | inconclusive: 35.5 µM [inhibitor, partial curve] |
| O=S(=O)(Cc1cc(Cl)nc(-c2ccncc2)n1)c1ccccc1 | inactive: -10.3% |  |
| COc1ccc(C2=C(C)C(N3CCC(C(=O)NCc4ccc(C)o4)CC3)=NS2(=O)=O)cc1 |  | inconclusive: 28.2 µM [inhibitor, partial curve] |
| COc1cc(Cl)ccc1OCc1cc(C(=O)N2CCCCCCC2)no1 |  | inconclusive: 3.55 µM [inhibitor, full curve] |
| C=CCn1c(Cc2cccc3ccccc23)n[nH]c1=S |  | inconclusive: 28.2 µM [inhibitor, partial curve] |
| N#CC1=C(N)Oc2n[nH]c(-c3cccs3)c2C1c1ccoc1 (stereo not given) | inactive: -12.4% |  |
| CC(Oc1ccccc1Cl)C(=O)/C=C/N(C)C (stereo not given) |  | inconclusive: 14.1 µM [inhibitor, partial curve] |
| O=C(Nc1cccc([N+](=O)[O-])c1)N1CCc2ccccc2C1 |  | inconclusive: 20 µM [inhibitor, partial curve] |
| CCOC(=O)N1CCN(Cc2nc3cc(NC(=O)CC)ccc3n2C(C)C)CC1 | inactive: -2.93% |  |
| CCN(CC)c1ccc(C(=C2C=CC(=[N+](CC)CC)C=C2)c2ccccc2)cc1 |  | inconclusive: 39.8 µM [inhibitor, partial curve] |
| CCCSc1nnc(Nc2ccccc2C)s1 |  | inconclusive: 31.6 µM [inhibitor, partial curve] |
| CCCCOc1ccc(-c2nnc(-c3ccco3)o2)cc1 |  | inconclusive: 35.5 µM [inhibitor, single point] |
| CC(=O)c1ccc(OCc2cc(C(=O)NC(C)CCn3cccn3)no2)cc1 (stereo not given) |  | inconclusive: 35.5 µM [inhibitor, single point] |
| CN(C)c1cccc(C(=O)NCc2ccccc2Cl)c1 |  | inconclusive: 28.2 µM [inhibitor, partial curve] |

| Structure (SMILES) | activity change, negative = displacement | Potency |
| --- | --- | --- |
| O=[N+]([O-])c1cc(S(=O)(=O)N2CCOCC2)ccc1N1CCCC1 |  | inconclusive: 44.7 µM [inhibitor, partial curve] |
| O=C(COC(=O)C1CCCCC1)Nc1ccccc1OC(F)F |  | inconclusive: 31.6 µM [inhibitor, single point] |
| Fc1cccc(Cl)c1CSc1ncn[nH]1 |  | inconclusive: 35.5 µM [inhibitor, partial curve] |
| Cc1cc(C)n(-c2ccc(NC(=O)C3CCN(Cc4cc(C)c(C)o4)CC3)cc2)n1 |  | inconclusive: 25.1 µM [inhibitor, partial curve] |
| Cc1cc(C)c(NC(=O)/C(=C/c2ccccc2)c2ccccc2)c(C)c1 |  | inconclusive: 44.7 µM [inhibitor, single point] |
| CCN(CC)S(=O)(=O)c1cccc(NC(=O)COC(=O)C2COc3ccccc3O2)c1 (stereo not given) |  | inconclusive: 50.1 µM [inhibitor, single point] |
| O=C1OCCN1C(=O)[C@H]1[C@H](c2ccc(F)cc2)C(c2cccc(Cl)c2)=NN1c1ccccc1 | inactive: 563% |  |
| CCN(CC)CCCN(C(=O)c1ccc(Br)cc1)c1nc(-c2ccc(OC)cc2)cs1 |  | inconclusive: 35.5 µM [inhibitor, partial curve] |
| COc1cc(OC)c(NC(=O)CCc2ccccc2)cc1Cl |  | inconclusive: 28.2 µM [inhibitor, partial curve] |
| O=[N+]([O-])c1ccc(/C=C/C2=NN(c3ccccc3)C(c3ccco3)C2)cc1 (stereo not given) | inactive: -4.4% |  |
| COc1ccc(/C=C2/C(=O)ON=C2C)cc1Cl | inactive: -4.27% |  |
| COc1ccc(/C(C)=N/NC(=O)CNC(=O)c2cccs2)cc1 |  | inconclusive: 7.08 µM [inhibitor, partial curve] |
| Cc1ccccc1SCC(=O)OCC(=O)Nc1ccc(N(C)C)cc1 |  | inconclusive: 12.6 µM [inhibitor, partial curve] |
| CC(Oc1ccc(Cl)cc1)c1ccnn1S(C)(=O)=O (stereo not given) |  | inconclusive: 35.5 µM [inhibitor, partial curve] |
| O=c1[nH]n2c(=O)c3c([nH]c2c1N=Nc1cccc(Cl)c1)CCC3 | inactive: -13% |  |
| COc1ccccc1CNC(=O)c1ccc(S(=O)(=O)N2CCCC2)cc1 |  | inconclusive: 35.5 µM [inhibitor, partial curve] |
| Cn1cccc1Cc1nnc(SCC(=O)NC2CCCCC2)n1CCc1ccccc1 |  | inconclusive: 39.8 µM [inhibitor, partial curve] |
| COc1ccc(C(=O)OCC(=O)N2CCCCC2)cc1[N+](=O)[O-] |  | inconclusive: 39.8 µM [inhibitor, single point] |
| CCc1ccc(-n2nnc(-c3nsc(NC(=O)c4ccccc4Cl)n3)c2C)cc1 |  | inconclusive: 10 µM [inhibitor, partial curve] |
| O=C(NC(=S)Nc1ccc(S(=O)(=O)N2CCCC2)cc1)C1CC1 | inactive: -13.9% |  |
| COc1ccccc1Oc1coc2cc(O)ccc2c1=O | inactive: 134% |  |
| COCCCNC1=C(Cl)C(=O)c2ccccc2C1=O | inactive: -6.6% |  |

Reference: PubChem BioAssay AID485281 (National Center for Advancing Translational Sciences (NCATS), 2010)
